The other results are listed elsewhere or left out. Sequences were assembled here from the parent chain. Inactive controls read about 0.05.
B1: TEV protease; numbered along this chain (parent)
chain: MGESLFKGPRDYNPISSSICHLTNESDGHTTSLYGIGFGPFIITNKHLFRRNNGTLVVQSLHGVFKVKDTTTLQQHLVDGRDMIIIRMPKDFPPFPQKLKFREPQREERICLVTTNFQTKSMSSMVSDTSCTFPSGDGIFWKHWIQTKDGQCGSPLVSTRDGFIVGIHSASNFTNTNNYFTSVPKNFMELLTNQEAQQWVSGWRLNADSVLWGGHKVFMVKPEEPFQPVKEATQL

Variants of: B1
Assay: raw area under fraction-flipped curve 0-4 h after induction (AUC4h, not background-subtracted), DNA-recorder readout of cleavage of the substrate (dimensionless); higher = more cleavage of the substrate by the protease variant
Conditions: temperature: 34 °C; time window: 0-4 h after rhamnose induction
Description: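 In vivo DNA recorder in E. coli TOP10(DE3) ΔrhaA at 34 °C. Each TEVp single-site mutant (parent TEVp 0) is paired with a single-site variant of the 7-mer TEVs (canonical ENLYFQ|S). The substrate sits between flexible linkers in a Bxb1-sfGFP-TEVs-SsrA fusion, so cleavage stabilises Bxb1 and speeds flipping of a recombination array, read by NGS. The value is the raw area under the fraction-flipped curve over 0-4 h after rhamnose induction (AUC4h), with ≥20 reads per time point. It is not background-subtracted; inactive controls average about 0.047.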
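Note: Bxb1 expression induced with 0.2% (w/v) L-rhamnose at OD600 near 0.5, cultures sampled hourly, flipped fraction per protease–substrate barcode pair counted by paired-end Illumina sequencing.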

Row | Variant | area with substrate ENLDFQS | area with substrate ENLFFQS | area with substrate ENLGFQS | area with substrate ENLPFQS | area with substrate ENLQFQS | area with substrate ENLRFQS | area with substrate ENLSFQS | area with substrate ENLVFQS | area with substrate ENLWFQS | area with substrate ENLEFQS | area with substrate ENLHFQS | area with substrate ENLKFQS | area with substrate ENLLFQS | area with substrate ENLNFQS | area with substrate ENLMFQS | area with substrate ENLTFQS | area with substrate ENLIFQS
1 | MGESLFKGPRDYNPISSSICHLTNESDGHTTSLYGIGFGPFIITNKHLFRYNNGTLVVQSLHGVFKVKDTTTLQQHLVDGRDMIIIRMPKDFPPFPQKLKFREPQREERICLVTTNFQTKSMSSMVSDTSCTFPSGDGIFWKHWIQTKDGQCGSPLVSTRDGFIVGIHSASNFTNTNNYFTSVPKNFMELLTNQEAQQWVSGWRLNADSVLWGGHKVFMVKPEEPFQPVKEATQL [R51Y] | 0.0739 | 0.0682 | 0.0893 | 0.0502 | 0.077 | 0.0772 | 0.0767 | 0.105 | 0.071 | – | – | – | – | – | – | – | –
2 | MGESLFKGPRDYNPISSSICHLTNESDGHTTSLYGIGFGPFIITNKHLFRRNNGTLVVQSLHGVFNVKDTTTLQQHLVDGRDMIIIRMPKDFPPFPQKLKFREPQREERICLVTTNFQTKSMSSMVSDTSCTFPSGDGIFWKHWIQTKDGQCGSPLVSTRDGFIVGIHSASNFTNTNNYFTSVPKNFMELLTNQEAQQWVSGWRLNADSVLWGGHKVFMVKPEEPFQPVKEATQL [K66N] | 0.0515 | – | – | – | – | 0.0805 | 0.0507 | 0.0976 | – | 0.0539 | 0.0563 | 0.0758 | 0.0717 | 0.0583 | – | – | –
3 | MGESLFKGPRDYNPISSSICHLTNESDGHTTSLAGIGFGPFIITNKHLFRRNNGTLVVQSLHGVFKVKDTTTLQQHLVDGRDMIIIRMPKDFPPFPQKLKFREPQREERICLVTTNFQTKSMSSMVSDTSCTFPSGDGIFWKHWIQTKDGQCGSPLVSTRDGFIVGIHSASNFTNTNNYFTSVPKNFMELLTNQEAQQWVSGWRLNADSVLWGGHKVFMVKPEEPFQPVKEATQL [Y34A] | 0.0643 | 0.0517 | – | – | – | – | 0.0594 | – | – | – | 0.0559 | – | 0.0738 | – | 0.0767 | 0.0607 | –
4 | MGESLFKGPRDYNPISSSICHLTNESDGHTTSLSGIGFGPFIITNKHLFRRNNGTLVVQSLHGVFKVKDTTTLQQHLVDGRDMIIIRMPKDFPPFPQKLKFREPQREERICLVTTNFQTKSMSSMVSDTSCTFPSGDGIFWKHWIQTKDGQCGSPLVSTRDGFIVGIHSASNFTNTNNYFTSVPKNFMELLTNQEAQQWVSGWRLNADSVLWGGHKVFMVKPEEPFQPVKEATQL [Y34S] | 0.0639 | 0.0636 | 0.103 | 0.0471 | – | 0.0683 | – | – | 0.0468 | 0.0073 | 0.0635 | 0.0084 | – | 0.0609 | – | – | 0.065
5 | MGESLFKGPRDYNPISSSICHLTNESDGHTTSLYGIGFGPFIITNKHLFRRNNETLVVQSLHGVFKVKDTTTLQQHLVDGRDMIIIRMPKDFPPFPQKLKFREPQREERICLVTTNFQTKSMSSMVSDTSCTFPSGDGIFWKHWIQTKDGQCGSPLVSTRDGFIVGIHSASNFTNTNNYFTSVPKNFMELLTNQEAQQWVSGWRLNADSVLWGGHKVFMVKPEEPFQPVKEATQL [G54E] | 0.0596 | 0.0641 | – | 0.057 | 0.0449 | 0.0568 | 0.0357 | 0.07 | – | 0.0595 | 0.0484 | 0.0636 | 0.0569 | 0.0639 | – | – | 0.0684
6 | MGESLFKGPRDYNPISSSICHLTNESDGHTTSLYGIGFGPFIITNKHLFRRNNGTLVVQSLHGVFKNKDTTTLQQHLVDGRDMIIIRMPKDFPPFPQKLKFREPQREERICLVTTNFQTKSMSSMVSDTSCTFPSGDGIFWKHWIQTKDGQCGSPLVSTRDGFIVGIHSASNFTNTNNYFTSVPKNFMELLTNQEAQQWVSGWRLNADSVLWGGHKVFMVKPEEPFQPVKEATQL [V67N] | 0.0653 | 0.0615 | – | – | – | – | 0.0272 | – | 0.0507 | – | – | 0.0501 | – | – | – | – | 0.0581
7 | MGESLFKGPRDYNPISSSICHLTNESDGHTTSLYGIGFGPFIITNKHLFRRNNGALVVQSLHGVFKVKDTTTLQQHLVDGRDMIIIRMPKDFPPFPQKLKFREPQREERICLVTTNFQTKSMSSMVSDTSCTFPSGDGIFWKHWIQTKDGQCGSPLVSTRDGFIVGIHSASNFTNTNNYFTSVPKNFMELLTNQEAQQWVSGWRLNADSVLWGGHKVFMVKPEEPFQPVKEATQL [T55A] | 0.0625 | 0.0784 | – | – | – | – | – | – | 0.0782 | 0.0645 | 0.0862 | – | – | 0.0366 | 0.0679 | – | 0.0807
8 | MGESLFKGPRDYNPISSSICHLTNESDGHTTSLYGIGFGPFIITNKHLFRRNNGTLVVQSLHGVFKVKDTGTLQQHLVDGRDMIIIRMPKDFPPFPQKLKFREPQREERICLVTTNFQTKSMSSMVSDTSCTFPSGDGIFWKHWIQTKDGQCGSPLVSTRDGFIVGIHSASNFTNTNNYFTSVPKNFMELLTNQEAQQWVSGWRLNADSVLWGGHKVFMVKPEEPFQPVKEATQL [T71G] | 0.0675 | 0.0702 | – | 0.0584 | 0.0598 | 0.0698 | – | – | – | 0.0561 | 0.0668 | 0.0667 | – | 0.0717 | – | 0.0615 | 0.074
9 | MGESLFKGPRDYNPISSSICHLTNESDGHTTSLYGIGFGPFIITNKHLFRRNNGTLVVQSLHGVFKVKDTQTLQQHLVDGRDMIIIRMPKDFPPFPQKLKFREPQREERICLVTTNFQTKSMSSMVSDTSCTFPSGDGIFWKHWIQTKDGQCGSPLVSTRDGFIVGIHSASNFTNTNNYFTSVPKNFMELLTNQEAQQWVSGWRLNADSVLWGGHKVFMVKPEEPFQPVKEATQL [T71Q] | 0.0623 | 0.0927 | – | 0.0602 | – | 0.0694 | – | – | – | – | 0.0794 | 0.0825 | – | – | – | 0.0927 | –
10 | MRESLFKGPRDYNPISSSICHLTNESDGHTTSLYGIGFGPFIITNKHLFRRNNGTLVVQSLHGVFKVKDTTTLQQHLVDGRDMIIIRMPKDFPPFPQKLKFREPQREERICLVTTNFQTKSMSSMVSDTSCTFPSGDGIFWKHWIQTKDGQCGSPLVSTRDGFIVGIHSASNFTNTNNYFTSVPKNFMELLTNQEAQQWVSGWRLNADSVLWGGHKVFMVKPEEPFQPVKEATQL [G2R] | 0.0575 | 0.107 | – | 0.0676 | – | – | – | 0.0701 | – | 0.0622 | 0.0723 | – | – | – | – | – | 0.11
11 | MGESLSKGPRDYNPISSSICHLTNESDGHTTSLYGIGFGPFIITNKHLFRRNNGTLVVQSLHGVFKVKDTTTLQQHLVDGRDMIIIRMPKDFPPFPQKLKFREPQREERICLVTTNFQTKSMSSMVSDTSCTFPSGDGIFWKHWIQTKDGQCGSPLVSTRDGFIVGIHSASNFTNTNNYFTSVPKNFMELLTNQEAQQWVSGWRLNADSVLWGGHKVFMVKPEEPFQPVKEATQL [F6S] | 0.0754 | 0.129 | – | 0.0668 | – | – | 0.0811 | – | – | – | – | – | – | 0.0715 | – | – | 0.114

Source: the supplement of paper PMC12217912
